Data reported in PubChem BioAssay AID463173 (ICCB-Longwood Screening Facility, Harvard Medical School, 2010).
Out of some 52,000 compounds screened, about 1,700 (3.3%) were called active. Rule as the data show it: active = survival mostly below about 52% (no sharp cut-off); inactive = mostly above about 56%. Some of the results follow.

Each molecule was assayed on Wild type (assay: S. aureus survival, RN4220 and DeltatarO strains – OD600, teichoic acid synthesis inhibitors, primary screen (AID 463173)). Conditions: S. aureus RN4220 wild type/DeltatarO growth, OD600, 18 h, hits give low values, screened at 18.75 µg/mL (by protocol).

Compound	survival
CCOC(=O)c1cccc(NC(=O)Cc2ccc(NC(=O)N3CCCCc4ccccc43)cc2)c1	inactive: 88%
CCOC(=O)c1c(C)[nH]c(C)c1S(=O)(=O)N1CCCC(C(=O)N2CCN(c3ccc(Cl)cc3)CC2)C1 (stereo not given)	inactive: 72%
O=C1Nc2c(c(=O)[nH]c(=O)n2-c2ccc(Cl)cc2)C1(NS(=O)(=O)c1ccccc1)C(F)(F)F (stereo not given)	inactive: 60%
CCOC(=O)c1ccc(N2CCN(c3cccc(Cl)c3)CC2)c(NC(=O)Nc2ccc(Cl)cc2)c1	inactive: 76%
Cc1ccc(C)c(NC(=O)CCn2cnnn2)c1	inactive: 157%
Cc1nnc(N2CCN(c3ccccc3)CC2)c2c1nnn2Cc1ccc(F)cc1	inactive: 89%
O=C(Nc1ccccc1C(=O)OCc1cc(=O)n2c3c(sc2n1)CCCC3)c1ccc(Cl)cc1	active: -3%
CCOC(=O)c1[nH]c(C)c(CCC(=O)N2CCN(c3cc(Cl)ccc3C)CC2)c1C	inactive: 72%
COc1ccc(Cl)cc1NC(=O)C1CCCN(c2cc(C)nc3ncnn23)C1 (stereo not given)	inactive: 113%
S=c1[nH]c2ccc(Cl)cc2[nH]1	inactive: 107%
CCCCOC(=O)c1ccc(NC(=O)c2ccc3c(c2)CCN3S(=O)(=O)c2ccccc2)cc1	inactive: 83%
O=C(Nc1ccc(F)cc1F)c1ccc(-c2ccccc2)s1	inactive: 91%
COc1ccc(C)cc1N(CC(=O)N1CCC(C)CC1)S(=O)(=O)c1ccc(C)cc1	inactive: 69%
Nc1c(C(=O)c2ccc3c(c2)OCO3)sc(Nc2ccccc2F)c1S(=O)(=O)c1ccccc1	inactive: 70%
Cc1ccc2nc(CSc3nnc(NC(=O)COc4ccccc4F)s3)cc(=O)n2c1	inactive: 81%
O=C(CCCn1c(=O)c2sccc2n(Cc2c(F)cccc2Cl)c1=O)NCc1ccccc1	inactive: 149%
Cc1cnc2c(c1SCC(=O)N(C)c1ccccc1)c(=O)n(C)c(=O)n2C	inactive: 100%
CCCC(=O)Nc1ccc2nn(-c3ccc(CC)cc3)nc2c1	inactive: 74%
Cn1c(=O)c2c(-c3ccccc3Br)n(C(C)(C)C)cc2n(C)c1=O	inactive: 112%
COc1ccc(C2CC(=O)c3cc(-c4nc(-c5cccc([N+](=O)[O-])c5)cs4)c(=O)n(-c4cc(C)cc(C)c4)c3C2)cc1 (stereo not given)	inactive: 80%
CCOC(=O)CSc1nc2sc3c(c2c(=O)n1CC)CCCC3	inactive: 88%
Cc1cccc(NC(=O)Cn2nc(C)c3nn(-c4ccc(Cl)cc4)c(C)c3c2=O)c1C	inactive: 87%
COc1ccc(N(C(=O)Cn2nnc3ccccc32)C(C(=O)NCC2CCCO2)c2sccc2C)cc1 (stereo not given)	inactive: 114%
COc1ccccc1N1CCN(C(=O)c2ccc3c(c2)N(Cc2ccccc2)C(=O)c2ccccc2S3(=O)=O)CC1	inactive: 94%
Cc1cc(C)cc(NC(=O)CSCc2cc(=O)c3cc(Cl)ccc3[nH]2)c1	inactive: 68%
Cc1ccc(N2CCN(Cc3nnc(-c4ccc5c(c4)OCO5)o3)CC2)c(C)c1	inactive: 85%
Cc1cccc(-c2noc(CN(C(C)C)S(=O)(=O)c3ccc(Br)cc3)n2)c1	inactive: 72%
CC1(C)CC(=O)c2cc(-c3nc(-c4ccc(Br)cc4)cs3)c(=O)n(-c3ccccc3)c2C1	inactive: 137%

Compound	survival
O=C(c1cnc(N2CCOCC2)c2ccccc12)N1CCN(c2ccc(F)cc2)CC1	inactive: 80%
Cc1c(-c2nc(-c3ccc4c(c3)[nH]c(=O)n4C)no2)cccc1[N+](=O)[O-]	inactive: 73%
O=C(NCc1ccccc1)/C(=C/c1ccco1)NC(=O)c1ccco1	inactive: 103%
O=C(CSc1nnc(-c2cccs2)o1)Nc1cccc(C(F)(F)F)c1	inactive: 71%
Cc1cccc(N2C(=O)CSC23C(=O)N(CC(=O)NCCc2ccccc2)c2ccccc23)c1 (stereo not given)	inactive: 119%
O=C1c2ccccc2-c2onc3c(Br)cc(NC4CCCCC4)c1c23	inactive: 86%
COc1ccc(-c2cc(C(F)(F)F)n3nc(-c4ccc(Cl)cc4)cc3n2)cc1OC	inactive: 58%
COCCNC(=O)CSc1nc2cc3c(cc2c(=O)n1CCCCCC(=O)NCCc1ccc(OC)c(OC)c1)OCO3	inactive: 59%
Cc1cc2c(cc1S(=O)(=O)CCC(=O)NCc1ccccc1)OCC(=O)N2	inactive: 86%
Cc1c(CC(=O)N2CCCCC2)c(=O)oc2c(C)c(O)ccc12	inactive: 85%
O=C(Cc1ccccc1)NC1CC(=O)N(c2ccc3c(c2)OCCO3)C1 (stereo not given)	inactive: 97%
CCN(CC)c1ccc(NC(=O)C(NS(=O)(=O)c2cccs2)C(C)C)c(C)c1 (stereo not given)	inactive: 111%
O=C(O)CCS(=O)(=O)c1ccc(-c2ccccc2)cc1	inactive: 110%
O=C(OCc1ccccc1F)c1ccc(-c2nnn(Cc3ccccc3)n2)cc1	inactive: 121%
CCn1nc(-c2ccccc2)c(-c2ccccc2)c(C(=O)Nc2ccccc2C(N)=O)c1=O	inactive: 85%
CN(C(=O)c1cnc(N2CCOCC2)c2ccccc12)c1ccccc1F	inactive: 67%
Cn1ncc(I)c1C(=O)N1CCc2ccccc2C1	inactive: 108%
C=CCNc1sc(C(=O)c2cccs2)c(N)c1C#N	inactive: 105%
COc1ccc(-n2nnnc2C2CCN(S(=O)(=O)c3cccc(Cl)c3C)CC2)cc1	inactive: 85%
Cc1ccc(C)c(N2CCN(C(=O)NCc3noc4ccccc34)CC2)c1	inactive: 85%
COC(=O)c1ccc2c(c1)N(CC(=O)Nc1ccc(C)c(C)c1)C(=O)c1ccccc1S2	inactive: 78%
CCS(=O)(=O)N1CCc2cc(C(=O)Nc3cc(C)cc(C)c3)ccc21	inactive: 82%
Cc1ccc2nc(Nc3cccc(C(F)(F)F)c3)c3nnnn3c2c1	inactive: 69%
COc1ccc2oc(=O)c(C(=O)NCc3ccco3)cc2c1	inactive: 106%
Cc1cc2oc(C(=O)Nc3sc4c(c3C(=O)NCC3CCCO3)CCCC4)cc(=O)c2cc1C (stereo not given)	inactive: 87%
Cn1c(=O)c2c(-c3ccc(Cl)cc3)ccnc2n(C)c1=O	inactive: 68%
COc1ccc(OC)c(CCNc2nc3cc(OC)c(OC)cc3c3nc(-c4cccnc4)nn23)c1	inactive: 123%
